# Test results published in the supplement of paper PMC9174493.
# The list shows a part of the results. Single values of this set are uncertain. Values with irradiation are relative to irradiated vehicle.
# System: A549-Dual
# Assay: NF-kB reporter (SEAP) activity, viability-corrected, relative to vehicle (fold change vs vehicle); higher = more activation of STING-IRF / NF-kB immune response reporter
# Conditions: 1 µM; irradiation: none
# 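Also: viability correction based on the alamar blue assay, with concentrations leaving 10% survival or less dropped.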
row,SMILES,NF-kB reporter
1,CC1=C(CC(=O)O)c2cc(F)ccc2/C1=C\c1ccc(S(C)=O)cc1 (stereo not given) [Sulindac],0.907
2,C1N2CN3CN1CN(C2)C3 [Methenamine],1.04
3,COc1ccc2cc(C(C)C(=O)[O-])ccc2c1.[Na+] (stereo not given) [Naproxen Sodium],1.21
4,Cc1ccc(Cl)c(Nc2ccccc2C(=O)[O][Na])c1Cl [Meclofenamate Sodium],1.17
5,O=C(OCCOCCO)c1ccccc1Nc1cccc(C(F)(F)F)c1 [Etofenamate],0.891
6,O=C([O-])c1cc(N=Nc2ccc(O)c(C(=O)[O-])c2)ccc1O.[Na+].[Na+] [Olsalazine Sodium],0.937
7,CC(=O)Nc1ccc(OC(=O)c2ccccc2OC(C)=O)cc1 [Benorylate],0.777
8,CO/N=C(\C(=O)NC1C(=O)N2C(C(=O)OCOC(=O)C(C)(C)C)=C(C)CSC12)c1csc(N)n1.Cl (stereo not given) [Cefetamet pivoxil hydrochloride],0.826
9,CCC(C(=O)O)c1ccc(N2Cc3ccccc3C2=O)cc1 (stereo not given) [Indobufen],0.833
10,CS(=O)(=O)O.Cc1ccc(NC(=O)c2ccc(CN3CCN(C)CC3)cc2)cc1Nc1nccc(-c2cccnc2)n1 [Imatinib Mesylate (STI571)],1.14
11,CC(C(=O)O)c1ccc(C(=O)c2ccccc2)s1 (stereo not given) [Tiaprofenic acid],1.43
12,CCc1nc(N)nc(N)c1-c1ccc(Cl)cc1 [Pyrimethamine],1.32
13,COc1cc(C2c3cc4c(cc3C(OC3OC5COC(C)OC5C(O)C3O)C3COC(=O)C23)OCO4)cc(OC)c1O (stereo not given) [Etoposide],1.2
14,CN(C)CCC(c1ccc(Br)cc1)c1ccccn1.O=C(O)/C=C\C(=O)O (stereo not given) [Brompheniramine hydrogen maleate],1.1
15,CC12CCC3c4ccc(O)cc4CC(CCCCCCCCCS(=O)CCCC(F)(F)C(F)(F)F)C3C1CCC2O (stereo not given) [Fulvestrant],1.05
16,O=C([O-])CC(O)(CC(=O)[O-])C(=O)[O-].O=C([O-])CC(O)(CC(=O)[O-])C(=O)[O-].[BiH6+3].[K+].[K+].[K+] [Gastrodenol],1.39
17,CCCCC1(COC(=O)CCC(=O)O)C(=O)N(c2ccccc2)N(c2ccccc2)C1=O [Suxibuzone],1.45
18,O=C(O)Cc1ccccc1Nc1c(Cl)cccc1Cl.OCCN1CCCC1 [Diclofenac Epolamine],0.697
19,Cl.N=C1CCCN1Cc1[nH]c(=O)[nH]c(=O)c1Cl.O=c1[nH]c(=O)n(C2CC(O)C(CO)O2)cc1C(F)(F)F.O=c1[nH]c(=O)n(C2CC(O)C(CO)O2)cc1C(F)(F)F (stereo not given),1.37
20,NC(CO)(CO)CO [Trometamol],0.96

row,SMILES,NF-kB reporter
1,COc1ccc2c(c1)c(CC(=O)O)c(C)n2C(=O)c1ccc(Cl)cc1 [Indomethacin],1
2,Cn1cnc([N+](=O)[O-])c1Sc1ncnc2nc[nH]c12 [Azathioprine],1.06
3,NCCNc1ccc(NCCN)c2c1C(=O)c1ccncc1C2=O.O=C(O)/C=C\C(=O)O.O=C(O)/C=C\C(=O)O [Pixantrone Maleate],1.96
4,CC(=O)Oc1cccc2c1C(=O)c1c(OC(C)=O)cc(C(=O)O)cc1C2=O [Diacerein],0.846
5,CNCC(O)c1ccc(O)c(O)c1.O=C(O)C(O)C(O)C(=O)O (stereo not given) [Epinephrine bitartrate],1.79
6,CC1(C(=O)O)CCC2(C)CCC3(C)C(=CC(=O)C4C5(C)CCC(OC6OC(C(=O)O)C(O)C(O)C6OC6OC(C(=O)O)C(O)C(O)C6O)C(C)(C)C5CCC43C)C2C1.N.N (stereo not given) [Diammonium Glycyrrhizinate],1.18
7,CCCCCCCCCCCCCCCCCCOP(=O)([O-])OC1CC[N+](C)(C)CC1 [Perifosine (KRX-0401)],1.56
8,COc1c2occc2cc2ccc(=O)oc12 [Methoxsalen],0.871
9,O=C(O)CCCN1CCC(OC(c2ccc(Cl)cc2)c2ccccn2)CC1 (stereo not given) [Bepotastine],1.12
10,CN(C)CCCOc1nn(Cc2ccccc2)c2ccccc12.Cl [Benzydamine HCl],1.2
11,CC(C(=O)O)c1ccc2c(c1)[nH]c1ccc(Cl)cc12 (stereo not given) [Carprofen],0.79
12,COc1cc2nccc(Oc3ccc(NC(=O)Nc4cc(C)on4)c(Cl)c3)c2cc1OC [Tivozanib (AV-951)],0.955
13,Oc1ccc(/C=C/c2cc(O)cc(O)c2)cc1 [Resveratrol],1.06
14,Nc1cccc2c1C(=O)N(C1CCC(=O)NC1=O)C2=O (stereo not given) [Pomalidomide],0.886
15,COc1cc(C2c3cc4c(cc3C(OC3OC5COC(c6cccs6)OC5C(O)C3O)C3COC(=O)C23)OCO4)cc(OC)c1O (stereo not given) [Teniposide],1.57
16,S=c1nc[nH]c2nc[nH]c12 [Mercaptopurine (6-MP)],0.85
17,CC(C(=O)O)c1ccc2c(c1)CC(=O)c1ccccc1S2 (stereo not given) [Zaltoprofen],0.939
18,Cc1nc(Nc2ncc(C(=O)Nc3c(C)cccc3Cl)s2)cc(N2CCN(CCO)CC2)n1.Cl [Dasatinib hydrochloride],1
19,"O=c1[nH]cc(F)c(=O)[nH]1 [Fluorouracil (5-Fluoracil, 5-FU)]",1.16
20,COc1cc(/C=C/C(=O)/C=C(O)/C=C/c2ccc(O)c(OC)c2)ccc1O [Curcumin],0.997
